# The other results are listed elsewhere or left out.
# B1: SP15308A-bot-339-19-339 (Bacteroides ovatus) (protein)
# chain: ACNNEWEDEQYEQYISFKSPIPAGGEGVTDIYVRYKEDGKVTYRLPIVVSGSTTNTLDREVHIAVDKDTLETLNIERFSIHRPGLWYTALEEDKYDFPKTVHISAGSSVEQLNIDFNLQGIDMLEKWVLPLTIVDDPSYNYKSHPRKNYAKALLRVIPFNNYSGSYTSSAMKVYTYINGKPDTNARTANKRTGYVINDNTVFFYAGLISEDLDKEVREKYKINVHFNEDGTLHMEQGDPTNKMKFELIGTPTYSKTSVMDATRPYLERRYVQIMFEYDFEDFSYGGNGVDVIPIKYKVEGSMTLQRNINTQIPDEDQQIEW
# Key:
# [1] = biological target: Neu5Gc(a2-8)Neu5Gc(a2-6)Gal(b1-4)GlcNAc; assay: glycan array binding signal (z-score within array); higher = stronger binding; conditions: glycan notation: IUPAC condensed, linker removed
# In short: (§1)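 From the Consortium for Functional Glycomics database, 3228 arrays were curated, keeping only those whose protein sequence was available. Binding is given as a within-array Z-score averaged across arrays sharing a protein sequence and across linkers. Negative Z-scores can be read as non-binding.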
# [2] = biological target: Neu5Gc(b2-6)Gal(b1-4)GlcNAc; assay: as above; conditions: glycan notation: IUPAC condensed, linker removed
# In short: as §1
binder,measurement,setting,value
B1,glycan array binding signal (z-score),[1],-0.088
same,glycan array binding signal (z-score),[2],0.645

# From the supplement of paper PMC8728848
